Target: T1, human Nectin-4 on cell membrane surface (human, UniProt Q96NY8 32-510)
T1 sequence (looked up): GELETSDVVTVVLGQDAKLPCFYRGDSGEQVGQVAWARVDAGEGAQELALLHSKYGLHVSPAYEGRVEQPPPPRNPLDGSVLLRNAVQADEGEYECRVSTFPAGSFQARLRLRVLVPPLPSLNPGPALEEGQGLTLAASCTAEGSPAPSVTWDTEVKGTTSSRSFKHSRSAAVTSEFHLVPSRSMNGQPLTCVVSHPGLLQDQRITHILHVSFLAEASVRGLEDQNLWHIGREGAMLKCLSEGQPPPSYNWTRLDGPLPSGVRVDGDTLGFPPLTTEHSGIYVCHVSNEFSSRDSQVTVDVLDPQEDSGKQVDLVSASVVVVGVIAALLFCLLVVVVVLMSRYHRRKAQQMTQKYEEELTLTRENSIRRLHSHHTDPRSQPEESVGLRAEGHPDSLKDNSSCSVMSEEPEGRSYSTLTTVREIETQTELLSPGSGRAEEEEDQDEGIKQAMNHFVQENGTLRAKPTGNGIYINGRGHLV
Experiment: cell-based or functional assay

Binder | killing activity EC50 on A549-Nectin-4 cells (CCK8) [µg/mL] | killing activity EC50 on MDA-MB-468 cells (CCK8) [µg/mL] | killing activity EC50 on NCI-N87 cells (CCK8) [µg/mL] | killing activity EC50 on T24-Nectin-4 cells (CCK8) [µg/mL]
anti-human Nectin-4 ADC 31HZ-TL001 (other, DAR 7.75, 0 to 1 TL001 linked by thioether bond to a sulfhydryl group of the light chain; 0 to 4 TL001 linked by thioether bond to sulfhydryl groups of the heavy chain) heavy: QVQLVQSGAEVKKPGSSVKVSCKASGYTFTDYWMNWVRLAPGQGLEWIGMIHPSDSETRLNQKFQGRVTLTVDKSTSTAYMELSSLRSEDTAVYYCARWDFRIYYAMDYWGQGTLVTVSS[human IgG1 constant region not printed] light: DVVITQSPDSLAVSLGERATINCKSSQSLLNTNSQKNYLAWYQQKPGQSPKLLVYFASTRESGVPDRFSGSGSGTDFTLTISSLQAEDVAVYFCQQHYSTPLTFGGGTKVEIKRTVAAPSVFIFPPSDEQLKSGTASVVCLLNNFYPREAKVQWKVDNALQSGNSQESVTEQDSKDSTYSLSSTLTLSKADYEKHKVYACEVTHQGLSSPVTKSFNRGEC | 1.39 | 1.03 | 9.38 | 1.28
anti-human Nectin-4 ADC 74HZ-TL001 (other, DAR 7.98, TL001 linked by thioether bond to sulfhydryl groups) heavy: QVQLVQSGAEVKKPGSSVKVSCKASGYTFINYWMNWVRQAPGQGLEWIGMIHPSDSATRLNQSFQGRVTLTVDKSTSTAYMELSSLRSEDTAVYYCARWGNFYTVNAWYYFDYWGQGTLVTVSS[human IgG1 constant region not printed] light: DIVITQSPDSLAVSLGERATINCKSSQTLLNSNTQKNYLAWYQQKPGQSPKLLFYFASTRESGVPDRFSGSGSGTDFTLTISSLQAEDVAVYFCQQHYSTPLTFGQGTKLEIKRTVAAPSVFIFPPSDEQLKSGTASVVCLLNNFYPREAKVQWKVDNALQSGNSQESVTEQDSKDSTYSLSSTLTLSKADYEKHKVYACEVTHQGLSSPVTKSFNRGEC | 1.36 | 2.28 | – | –

Reference: patent US20240228612A1 (SICHUAN KELUN BIOTECH BIOPHARMACEUTICAL, published 2024)
